± gives the standard deviation of the averaged measurements. The list shows a part of the results.
Test system: PfAP2-I AP2 domain 3 (GST-tagged)
Assay: gcPBM binding intensity (ln(normalized median fluorescence intensity)); higher = stronger DNA binding
Procedure, shortened: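 Alexa488 anti-GST antibody, scanned at 488 nm, detected GST-tagged P. falciparum DNA-binding domains that had been expressed in E. coli and incubated for 1 h on an Agilent 4 × 180k array. The array carried primer-extended double-stranded 36-bp intergenic genomic probes and negative controls. Binding intensity is the highest Masliner-normalised natural-log median intensity across replicate spots of either orientation of each probe.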

Sequence | gcPBM binding intensity (ln)
TTTAAAAAAAAAAAAAAAAATTCTACATGTAATTTA [CACACA_negctrl_site1205] | 7.04 ± 0.41
AGAAGAAAAGAAATATGTACATAAACGTCTGAACTA [XGTACX_site1699] | 7.8 ± 0.71
ATAACAAATATGATAGCATGCTACATATTACAACTT [TGCATGCA_site524] | 7.64 ± 0.63
TGATTAATAGCAGGTAGTACTATAATAATATAAATA [XGTACX_site2776] | 7.95 ± 0.48
GTTCCATATATTACATGTACATATTTTTACATTTAA [XGTACX_site660] | 8.54 ± 0.57
AAAAAAAAAAGACACACACACAAATACAAATGGTAA [CACACA_site6906] | 7.71 ± 0.49
TAAAATTAGGAAATTGCACACAAAAAAAAACATATT [CACACA_site9349] | 8.41 ± 0.41
TTTGTTATATTTAATACACACATATTATAAACCCAT [CACACA_site3716] | 7.95 ± 0.59
ATAAAGCCATACAATACACACATTTTACATGGCTGT [CACACA_site5756] | 7.69 ± 0.65
TACCAAAATAGACACACACACAAAATATGTAAATAT [CACACA_site6963] | 7.77 ± 0.4
TATAAATAAATTTATACACACACACCCATATATATA [CACACA_site8183] | 8.38 ± 0.61
TATATTTTAGTTAATGCATGTGTGCATCCATTTAAA [TGCATGCA_site887] | 9.2 ± 0.23
ATACATATATATATATGTACACACATTAATAAAAAA [XGTACX_site6874] | 8.1 ± 0.43
AAATAACTCATGGGTTGTACTTAAAAAAAAAAAGAT [XGTACX_site4168] | 8.23 ± 0.52
AAACAAAAGTAGAAGGTAGAGTATTTTATATTTAAA [GTGCAC_negctrl_site503] | 7.34 ± 0.56
AAACCTTTAGAAAATCGTACAAAACATAACCACCTA [XGTACX_site1098] | 8.28 ± 0.29
ATTTTTTTTTTTTGTTTTTTCTTACAAATTAAATGA [CACACA_negctrl_site1457] | 7.61 ± 0.47
CTCTTGTCATTTTGCACACACACATGGATAGGTTAT [CACACA_site5655] | 9.99 ± 0.13
TTTTTTTTTTTTCACGTGCACTATACATATAAGTAA | 11.1 ± 0.23

Sequence | gcPBM binding intensity (ln)
ATATATACATTTCTATGTACATATGTATATATGTAT [XGTACX_site1522] | 7.76 ± 0.32
ATAAAAGAAAACAATAGTACTTTAGTTTTTCTTTTT [XGTACX_site5686] | 7.54 ± 0.34
TTAATCTAGAGAAATTGTACATTTTATTAACACAAT [XGTACX_site1190] | 7.52 ± 0.52
TATATTTGGAAACACACACACAAAAAAAAAAAAAAA [CACACA_site2474] | 8.16 ± 0.76
ATATTTTCTAATCAATGTACTTATTCTACACATTAA [XGTACX_site5774] | 8.03 ± 0.52
ACTACATAAAATGACACACACAAACTTTAAAATTTA [CACACA_site3474] | 7.84 ± 0.3
CACCTGCACGATTGCACACAAATATGTTTTGAAGAT [CACACA_site2103] | 9.39 ± 0.45
ATATTTTATGTAAAGGTGCAAAACAACATTAAAAAA | 10.9 ± 0.47
AACACATACAGACACACACACAAAAAAAAAAAAAAA [CACACA_site6322] | 8.24 ± 0.49
ACCCAATTTTTTAGTACACACATATAAATATATAAA [CACACA_site4944] | 8.32 ± 0.22
TAAAACATGTTTTTATATATTATTATTATATTTATA [XGTACX_negctrl_site8] | 7.33 ± 0.43
AGGATATATAATTAAGTGCATTAATTCAAAATAAAA [GTGCAC_site9702] | 11.5 ± 0.54
CATATATAAATCATGTGTACGTATTGAGTATCTACT [XGTACX_site6278] | 7.88 ± 0.26
ATAAGATATGTATATACACACATTTATTTACCTATA [CACACA_site7521] | 7.98 ± 0.45
TTATTATTTTATAACACACACATATATATTATATCT [CACACA_site1434] | 8 ± 0.47
ATATGACTTAAATATGTGCGCATTTTTTTTTTTTTT | 8.58 ± 0.4
TACACAAGAAAATTCACACACACACGGATATTTATA [CACACA_site7765] | 7.7 ± 0.44
GTATCGAAGTAAATACGTACTTAAATATGTTTAAAA [XGTACX_site1353] | 7.48 ± 0.37
ACGTACTGCCCTAAAGTGCATATATAATATAAACGA [GTGCAC_site9911] | 10.1 ± 0.34

Sequence | gcPBM binding intensity (ln)
CTTTAAACCCTGAACACACACAAATACAGACAAAAA [CACACA_site247] | 8.05 ± 0.61
GTATTTTAATATAAATGTACATAAATGTTATATATA [XGTACX_site3475] | 7.69 ± 0.27
AATATTGTATATAATAAACACACAATATTAAAAATA [CACACA_site8262] | 7.57 ± 0.39
CATTAATAACAAAGTTGTACAAGATAATATTATATG [XGTACX_site6832] | 8.06 ± 0.56
ATCTAGCCATTTTTTAGTACACATAAATAAAAAAAA [XGTACX_site1257] | 8.37 ± 0.014
TTTTATTTGACAAGCACACACTTAAATATATTTATA [CACACA_site7557] | 8.09 ± 0.61
ACATAAGAAGTTATATGTACATATATTTTTTAAATT [XGTACX_site8078] | 7.68 ± 0.41
AAAACATTTTCAAACTGTACACATAGAACTATGCAT [XGTACX_site4087] | 7.78 ± 0.61
TAAACAAAATATATATGTACATATATATATATATAT [XGTACX_site6502] | 9.51 ± 0.59
TCATAAAATATGTTTTGTACATAAAATTAAACAAGT [XGTACX_site1763] | 7.74 ± 0.47
AAATAAGAGAAAATATGTACATACATATATTTATAT [XGTACX_site6210] | 7.72 ± 0.57
AATACGTTTATATATTGTACGTTATATATATATATA [XGTACX_site7452] | 9.21 ± 0.59
AAATATAAATAAAGATGTACATTATCTATATGTGAT [XGTACX_site4863] | 7.67 ± 0.45
ATATAATTTGTTATACTAACTTTTTAATTATTGATA [GTGCAC_negctrl_site443] | 7.4 ± 0.54
AAGAAAAGCAAACAAGTGCATAATAACAAAAAAAAT [GTGCAC_site9725] | 10.7 ± 0.38
TATTTATTTATAAACACACAAATATTTTTATTTATA [CACACA_site6889] | 7.53 ± 0.47
TAAGTTCGAATTACTTAAATATTGATTTTTTTAAAA [TGCATGCA_negctrl_site114] | 7.17 ± 0.38
AATTTTCTACAAATGTGTACTAAATAAAATATTACT [XGTACX_site7175] | 7.81 ± 0.44
AAAAAAGAAAAAAGGACACACATAAATATACACCCG [CACACA_site5590] | 8.06 ± 0.53

— the supplement of paper PMC11417369
